Reference: patent US20090022663A1 (published 2009)

Biological target: the molecule itself
Experiment: EGS chemical cross-linking on KU-812 cells, SDS-PAGE and Western blot (about 100 kDa monomer, about 200 kDa dimer)

B1: 161P2F10B variant 1 (human 161P2F10B), on the cell surface (enzyme)
chain: not shown
notes: Cell surface pyrophosphatase/phosphodiesterase; also called 161P2F10B v.1; CD203c
B1: binds.
